Assay results published in article PMC4336329 (PLoS ONE, 2015).
The campaign covered roughly 310,000 compounds. About 14,000 (4.5%) showed an effect of 50% or more. The effect is printed as a negative number. The list shows a part of the results.

Molecular target: human ether-à-go-go-related gene (hERG) potassium channel (human, UniProt Q12809)
Test: primary screen, population patch clamp on CHO cells stably expressing hERG
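Note: peak tail current of the secondary pulse compared with the same well before compound.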

Chain of human ether-à-go-go-related gene (hERG) potassium channel (Q12809 whole entry, looked up): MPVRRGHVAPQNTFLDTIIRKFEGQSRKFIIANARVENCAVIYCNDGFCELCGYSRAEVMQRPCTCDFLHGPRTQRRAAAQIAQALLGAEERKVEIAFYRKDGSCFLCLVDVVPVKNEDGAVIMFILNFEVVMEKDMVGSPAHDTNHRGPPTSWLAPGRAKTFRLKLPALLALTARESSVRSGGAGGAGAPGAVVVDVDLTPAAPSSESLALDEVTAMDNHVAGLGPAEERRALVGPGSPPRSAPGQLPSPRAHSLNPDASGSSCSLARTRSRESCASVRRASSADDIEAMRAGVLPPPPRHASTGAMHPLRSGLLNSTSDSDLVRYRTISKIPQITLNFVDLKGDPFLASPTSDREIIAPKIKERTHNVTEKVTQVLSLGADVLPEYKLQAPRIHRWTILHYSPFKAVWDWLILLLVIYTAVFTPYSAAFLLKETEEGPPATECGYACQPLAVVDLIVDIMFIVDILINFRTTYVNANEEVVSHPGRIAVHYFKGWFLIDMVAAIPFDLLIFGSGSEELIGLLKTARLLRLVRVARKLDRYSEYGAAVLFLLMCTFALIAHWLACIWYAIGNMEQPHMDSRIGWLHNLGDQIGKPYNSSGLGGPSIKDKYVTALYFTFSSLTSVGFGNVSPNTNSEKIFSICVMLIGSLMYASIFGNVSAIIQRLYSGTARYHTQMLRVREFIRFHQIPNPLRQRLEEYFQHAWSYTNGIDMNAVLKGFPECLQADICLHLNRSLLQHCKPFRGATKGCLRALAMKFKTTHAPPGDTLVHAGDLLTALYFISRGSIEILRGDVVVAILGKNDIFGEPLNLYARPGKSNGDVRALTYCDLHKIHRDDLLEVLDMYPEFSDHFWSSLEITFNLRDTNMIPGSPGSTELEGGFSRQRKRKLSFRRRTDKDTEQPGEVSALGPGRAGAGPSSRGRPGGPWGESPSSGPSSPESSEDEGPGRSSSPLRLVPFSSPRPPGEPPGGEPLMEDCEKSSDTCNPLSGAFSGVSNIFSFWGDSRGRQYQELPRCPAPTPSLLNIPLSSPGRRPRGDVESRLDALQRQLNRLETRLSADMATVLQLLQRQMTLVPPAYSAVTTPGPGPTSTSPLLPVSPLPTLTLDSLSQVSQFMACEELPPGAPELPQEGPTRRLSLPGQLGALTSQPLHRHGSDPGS

SMILES	hERG current change (%, negative = inhibition) at 10uM
CC(C)[C@H]1CN=C2N(CCNC(=O)CCC3CCCCC3)[C@H](Cc3ccc(O)cc3)CN21	-40.2%
O=C(Nc1ccc(-n2cc(Br)cn2)cc1)c1ccncc1	22.2%
COc1ccccc1N1CC(C(=O)OCC(=O)Nc2c(C)cccc2C)CC1=O (centres unmarked)	17%
c1ccc2c(CN3CCOCC3)c[nH]c2c1	15.1%
CCOC(=O)c1[nH]c2ccccc2c1N=C(C)N(CC)CC	-54.7%
NC(=O)c1ccc(Oc2cccc3cccnc23)c([N+](=O)[O-])c1	-13.4%
Cc1ccccc1CNC(=O)CC1C(=O)NCCN1CC1CCCCC1 (centres unmarked)	6.33%
CSc1cccc(NC(N)=O)c1	-3.78%
O=C(Nc1cccc(Cl)c1)OC1CCCCc2cccnc21 (centres unmarked)	4.75%
NC(=O)c1c(NC(=O)c2ccc(F)cc2)sc2c1CCC2	12.3%
CCOC(=O)N1CCC2(CC1)C(C#N)=C(N)Oc1n[nH]c(CSc3ccc(C)cc3)c12	-6.73%
CSC1=NCCN1C(=O)COc1ccccc1	11.3%
O=C(O)c1ccc(NC(=S)NC(NC(=O)c2ccco2)C(Cl)(Cl)Cl)cc1 (centres unmarked)	9.22%
COc1ccc(CCC(=O)NCCc2cn3c(C)csc3n2)cc1	-8.8%
COc1cccc(NC(=O)Nc2cccn(Cc3ccc(C)cc3)c2=O)c1	22.5%
CC1=C(C(=O)N2CCOCC2)C(c2ccccc2F)NC(=O)N1 (centres unmarked)	9.15%
Cc1ccc(S(=O)(=O)N(CC(=O)N2CCOCC2)c2ccc(Br)cc2)cc1	-42.9%
CCC(C)C(=O)Nc1nnc(SCC(=O)Nc2ccc(F)cc2)s1 (centres unmarked)	11%
Cc1ccc(N2CC(C(=O)Nc3ccc(S(=O)(=O)N4CCCC4)cc3)CC2=O)cc1 (centres unmarked)	-8.07%

SMILES	hERG current change (%, negative = inhibition) at 10uM
O=C(NCCC1=CCCCC1)c1ccc(Cl)cc1	-1.09%
COc1ccc(C(F)(F)F)cc1N/C=C\c1nnnn1-c1ccccc1	15.2%
NS(=O)(=O)c1ccc(NC(=O)Cn2nc(C(=O)O)c3ccccc3c2=O)cc1	27.4%
COc1ccc2c(c1)N(C)/C(=C1/SC(=NCc3ccccc3)N(c3ccccc3)C1=O)S2	20.8%
CCN(CC)c1ccc(C(=O)NNC(=O)CCc2nc3ccccc3c(=O)[nH]2)cc1	17.9%
CC(C)=CCC12CN3CCN(CC(C3)C1=O)C2	4.66%
COC(=O)CN1C(=O)[C@H]2[C@@H](c3ccc(C)o3)N3C(=O)CN(Cc4ccc(-c5ccccc5)cc4)C(=O)[C@@]3(C)[C@H]2C1=O	-18.1%
CC1(C)COC(c2cccn2Cc2ccccc2Cl)=N1	6.61%
COC(=O)C1=C(c2ccc(F)cc2F)C[C@@H]2CC[C@H]1N2C(=O)N1CCC(O)(c2ccc(Cl)cc2)CC1	-21.1%
O=C(CCS(=O)(=O)Cc1ccccc1)NC1CCCCC1	1.9%
O=C(COc1ccc(Br)cc1)N/N=C1\SCC(=O)N1c1ccc(F)cc1	-20.5%
Cc1cccc(-n2ncc3c2CCCC3NC(=O)CCN2CCCO2)c1C (centres unmarked)	14.7%
O=c1cccc2n1CC1CC2CN(c2ncnc3c2cnn3-c2ccccc2)C1 (centres unmarked)	-30%
CCOc1ccc2[nH]cc(C(=O)N3CCN(CC)CC3)c(=O)c2c1	-10.3%
CNC(=O)CN(c1cc(C)ccc1C)S(C)(=O)=O	-3.52%
COc1cc(NC(=O)c2ccccc2)ccc1NC(=O)c1cc2ccccc2o1	25.8%
CNS(=O)(=O)c1ccc(NC(=O)C2c3ccccc3Oc3ccccc32)cc1	1.39%
Fc1ccccc1CNc1ccc(Cl)c(Cl)c1	9.9%
CCN(CC)CCn1c2ccccc2c2nc(C)sc21	-30.6%

SMILES	hERG current change (%, negative = inhibition) at 10uM
COc1ccccc1C(=O)N(Cc1sccc1C)C1CCS(=O)(=O)C1 (centres unmarked)	15.4%
Cn1c(SCC(=O)Nc2ccc3c(c2)OCO3)nnc1-c1cnccn1	-2.11%
COc1ccc(NC(=O)NCc2ccc3c(c2)OCO3)cc1OC	1.25%
N#C/C(=C\c1ccc(O)c(O)c1)S(=O)(=O)c1ccccc1	5.35%
CCc1ccccc1-n1nnnc1SCC(=O)Nc1cc(C)on1	3.52%
COc1cc2cc(C)c(SCC(=O)N3CCN(C(=O)c4ccco4)CC3)nc2cc1OC	-66%
Cn1ncc(C#N)c1NC(=O)C1CC(c2c(F)cccc2Cl)=NO1 (centres unmarked)	-0.534%
COc1ccc(-n2nc(C(=O)NCC(=O)N3CCCC(C)C3)c3ccccc3c2=O)cc1 (centres unmarked)	17.8%
CC(NC(=O)C(C)N1c2cccc3cccc(c23)S1(=O)=O)c1ccccc1 (centres unmarked)	25.8%
CCOc1ccccc1OCC(=O)Nc1nnc(COC)s1	-13.7%
CC(=O)Nc1cc(C(=O)OCC(=O)c2ccc(Cl)cc2Cl)ccc1C	17.5%
CC(C)(CN1CCc2ccccc2C1)NS(=O)(=O)c1ccc(Cl)cc1	-38.9%
CCCCN(C(=O)Cc1coc2cc(C)c(C)cc12)c1c(N)n(Cc2ccccc2)c(=O)[nH]c1=O	-23.6%
O=C(Cn1nc(CNc2ccc(Cl)cc2)[n+]2c1CCCCC2)c1ccc(Cl)cc1.[Br-]	-8.17%
Cc1cccc(-n2nnc(C(=O)NC3CCCc4ccccc43)c2N)c1 (centres unmarked)	6.92%
Cc1ccc(C)n1-c1cccc(C(=O)O)c1	0.363%
CC(=O)NC(CC(=O)NNC(=O)C(C)Oc1ccccc1F)c1ccccc1 (centres unmarked)	7.84%
Cc1ccc(S(=O)(=O)Nc2ccccc2CNc2c(C)n(C)n(-c3ccccc3)c2=O)cc1	-30.7%
